# Reference: a collection of fitness landscapes (doi:10.1016/j.celrep.2020.107928)
# The full ranking holds about 81,000 sequences; the median of “one-hybrid fitness for binding NBS DNA” is about -0.1, and the highest 2% start at about 0.36. Some of the results follow.
# B1: Caulobacter ParB omega fusion; a variant is named by its letters at X, in order, B8GW30 (parent)
# chain: MESVVVGEPGMSEGRRGLGRGLSALLGEVDAAPAQAPGEQLGGSREAPIEILQRNPDQPRRTFREEDLEDLSNSIREKGVLQPILVRPSPDTAGEYQIVAGERAWRAAQRAGLKTVPIMVRELDDLAVLEIGIIENVQRADLNVLEEALSYKVLMEKFERTQENIAQTIGKSXSHVANXMRLLXLPDEVQSYLVSGELTAXHARAIAAAADPVALAKQIIEGGLSVRETEALARKAPNLSAGKSKGGRPPRVKDTDTQALESDLSSVLGLDVSIDHRGSTGTLTITYATLEQLDDLCNRLTRGI
# Variants of: B1
# Experiment: one-hybrid fitness for binding NBS DNA (the Noc-binding site; scaled: cognate 1, non-cognate 0); higher = stronger binding
# Details: with NBS DNA site
# Procedure, shortened: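 Selection: bacterial one-hybrid in E. coli USO, HIS3 reporter with the site 19 bp from the promoter, 48 hours at 37°C on M9-minus-histidine plus 0.1 mM IPTG and 5 mM 3-AT. Libraries were Caulobacter ParB with four randomised specificity codons, sequenced on Illumina before and after selection. Fitness is the rescaled log change in variant-to-wild-type read ratio, anchored to the cognate and non-cognate sites.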
row,Variant,one-hybrid fitness for binding NBS DNA
1,APLD,≤ 0.2
2,KWYY,≤ 0.2
3,LSKG,≤ 0.2
4,HRHG,≤ 0.2
5,PCKV,≤ 0.2
6,ELQC,≤ 0.2
7,QILI,≤ 0.2
8,HRER,≤ 0.2
9,TQPS,≤ 0.2
10,TFCG,≤ 0.2
11,WMND,≤ 0.2
12,SYWC,≤ 0.2
13,MIKT,≤ 0.2
14,TIYR,≤ 0.2
15,AKPG,≤ 0.2
16,LLNQ,≤ 0.2
17,RGSR,≤ 0.2
18,IMSL,≤ 0.2
19,TFPC,≤ 0.2
20,QLMF,≤ 0.2
21,TKVS,≤ 0.2
22,MPAR,≤ 0.2
23,EGDD,≤ 0.2
24,SSFV,≤ 0.2
25,GPRR,0.28

row,Variant,one-hybrid fitness for binding NBS DNA
1,SHNG,≤ 0.2
2,HNGW,≤ 0.2
3,QQPL,≤ 0.2
4,TAGR,≤ 0.2
5,SCTV,≤ 0.2
6,QMKG,0.336
7,VLSL,≤ 0.2
8,MQAH,≤ 0.2
9,NPNF,≤ 0.2
10,QCAQ,≤ 0.2
11,YELP,≤ 0.2
12,KHGG,≤ 0.2
13,RGCW,≤ 0.2
14,RRMF,≤ 0.2
15,QHDV,≤ 0.2
16,FVSH,≤ 0.2
17,MLAR,≤ 0.2
18,SHRN,≤ 0.2
19,GYLC,≤ 0.2
20,RHCL,≤ 0.2
21,PQMA,≤ 0.2
22,KNQL,≤ 0.2
23,ETAA,≤ 0.2
24,WRWL,≤ 0.2
25,SLQN,≤ 0.2

row,Variant,one-hybrid fitness for binding NBS DNA
1,QARQ,0.332
2,GVAC,≤ 0.2
3,MEAC,≤ 0.2
4,QRPT,0.576
5,WTAN,≤ 0.2
6,PGRG,≤ 0.2
7,IRLE,≤ 0.2
8,YLLL,≤ 0.2
9,GDQQ,≤ 0.2
10,NHNN,≤ 0.2
11,RQKS,0.581
12,QLKQ,0.331
13,GGPT,≤ 0.2
14,LLQR,≤ 0.2
15,QIAP,≤ 0.2
16,NNGT,≤ 0.2
17,YMRL,≤ 0.2
18,QCRC,0.512
19,TPMR,≤ 0.2
20,NGDT,≤ 0.2
21,TICP,≤ 0.2
22,VDKS,≤ 0.2
23,DPVC,≤ 0.2
24,VYLN,≤ 0.2
25,SCFV,≤ 0.2

row,Variant,one-hybrid fitness for binding NBS DNA
1,TMWG,≤ 0.2
2,PSTS,≤ 0.2
3,SHLK,≤ 0.2
4,LGQY,≤ 0.2
5,QKIM,≤ 0.2
6,KLDV,≤ 0.2
7,TYRR,0.242
8,QGIA,≤ 0.2
9,SCCE,≤ 0.2
10,WPQS,≤ 0.2
11,NPYF,≤ 0.2
12,RWRE,≤ 0.2
13,EPPV,≤ 0.2
14,RDVV,≤ 0.2
15,LKQH,≤ 0.2
16,AVKM,≤ 0.2
17,RWNF,≤ 0.2
18,AYQR,≤ 0.2
19,GERT,≤ 0.2
20,AYLD,≤ 0.2
21,TRYV,≤ 0.2
22,KMLL,≤ 0.2
23,CAQA,≤ 0.2
24,NGSD,≤ 0.2
25,WPRM,≤ 0.2

row,Variant,one-hybrid fitness for binding NBS DNA
1,TWTR,≤ 0.2
2,VAKN,≤ 0.2
3,FGFS,≤ 0.2
4,GDSY,≤ 0.2
5,LVKG,≤ 0.2
6,VPFA,≤ 0.2
7,PGTP,≤ 0.2
8,DMGA,≤ 0.2
9,AMLI,≤ 0.2
10,AIQG,≤ 0.2
11,LATA,≤ 0.2
12,LAMI,≤ 0.2
13,LLFF,≤ 0.2
14,EKMR,≤ 0.2
15,QAWP,≤ 0.2
16,RSCN,≤ 0.2
17,AQHF,≤ 0.2
18,HRPA,≤ 0.2
19,CLDS,≤ 0.2
20,IEQW,≤ 0.2
21,PLRG,≤ 0.2
22,ASIP,≤ 0.2
23,VAMG,≤ 0.2
24,SRQA,≤ 0.2
25,NFFG,≤ 0.2

row,Variant,one-hybrid fitness for binding NBS DNA
1,SPID,≤ 0.2
2,LMSN,≤ 0.2
3,TAHL,≤ 0.2
4,NHPT,≤ 0.2
5,ASCG,≤ 0.2
6,GHPF,≤ 0.2
7,RMYM,≤ 0.2
8,FALA,≤ 0.2
9,RNWW,≤ 0.2
10,YELL,≤ 0.2
11,RTWF,≤ 0.2
12,SGAN,≤ 0.2
13,GVFC,≤ 0.2
14,YVCL,≤ 0.2
15,CAET,≤ 0.2
16,AVKT,≤ 0.2
17,LIDC,≤ 0.2
18,KSMW,≤ 0.2
19,ITPC,≤ 0.2
20,PHAK,≤ 0.2
21,DKWS,≤ 0.2
22,PSDC,≤ 0.2
23,HKAC,≤ 0.2
24,NWNS,≤ 0.2
25,WTLY,≤ 0.2

row,Variant,one-hybrid fitness for binding NBS DNA
1,MAWC,≤ 0.2
2,GPSA,≤ 0.2
3,CYSR,≤ 0.2
4,TEKY,≤ 0.2
5,MIDR,≤ 0.2
6,DAWS,≤ 0.2
7,MING,≤ 0.2
8,SWTS,≤ 0.2
9,NEPY,≤ 0.2
10,QVET,≤ 0.2
11,LANY,≤ 0.2
12,HPVQ,≤ 0.2
13,RCKM,0.238
14,PVSY,≤ 0.2
15,RCLV,≤ 0.2
16,ISPR,≤ 0.2
17,VIAV,≤ 0.2
18,LPQE,≤ 0.2
19,CRSF,≤ 0.2
20,GPHC,≤ 0.2
21,VEEM,≤ 0.2
22,HPFR,≤ 0.2
23,LMIF,≤ 0.2
24,QLWV,≤ 0.2
25,GYES,≤ 0.2

row,Variant,one-hybrid fitness for binding NBS DNA
1,ITWT,≤ 0.2
2,HILS,≤ 0.2
3,LAWC,≤ 0.2
4,PKNS,≤ 0.2
5,RLNK,≤ 0.2
6,FYKT,≤ 0.2
7,NWTF,≤ 0.2
8,MLSG,≤ 0.2
9,AVPT,≤ 0.2
10,TVET,≤ 0.2
11,HTHT,≤ 0.2
12,QTGY,0.312
13,KYWS,≤ 0.2
14,YRGS,≤ 0.2
15,QRVC,0.314
16,NEIT,≤ 0.2
17,SRAI,≤ 0.2
18,RCHG,≤ 0.2
19,LEPD,≤ 0.2
20,SRMM,≤ 0.2
